From the supplement of paper PMC7726561
Over roughly 1,100 sequences, “thermal melting temperature (Tm) of peptide-HLA complex” has its median near 58; the lowest 2% begin near 42. Some of the results follow.

biological target: HLA-A*02:01; assay: thermal melting temperature (Tm) of peptide-HLA complex; higher = more thermostable pHLA complex; settings: C1R-A*02:01
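Also: cell lysates heated 10 min at 37–73 °C, remaining pHLA pulled down with pan-class I antibody, peptides quantified by DIA-MS versus 37 °C, Tm where half the complex is lost.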

Sequence	thermal melting temperature [°C]
KLDEAFEFV	57.6
RLNEESGALL	51
ALLGRIPSA	57.6
VVIPGKVEEV	54.8
ALRDVSEEL	59.2
VLFEKEVNEV	59.8
MLYPEVIQQV	54.4
SLPELVHAV	60.5
KLGSVPVTV	59.1
TVADKIHSV	55.7
LQLDPAQIYRV	55.6
YQLGELVKV	55.9
GLWPGAGTIRL	61.1
TTFPRPVTV	55.4
FLPETRIMTSV	58.4
KIGSIIFQV	56.8
RLTPKLMEV	56.6
FIIEKQPPQV	57.7

Sequence	thermal melting temperature [°C]
VLQGKLAEV	53.5
ALNSKNPQL	59.8
TLAETLVNL	55.3
ALASHILTA	57.8
RLDIIETNV	61.2
RLLGYQGIAV	60.2
FLDPNNIPKA	61.3
YLDQGTQIFL	55.5
VLTGLSIRL	57.1
SIFKAWAV	55.8
FLEPVNPRL	55.3
KLDFANNVQL	50.3
TLADTAVAAQV	60.7
ALLDVTPKAV	60.6
SLADVHIEV	63.1
VLGELVPRL	55.6
YLKDLIEEV	62.8
YLDFTNPKV	62.7
